No constants are given. Whether binding was seen depends on the method and setting. In cells and extracts the contact can be indirect. Some results given as binding are weak or reduced against the parent protein; the word gives no strength. Sequences can lack the tags named with a protein.
What was measured:
[1] = biological target: GST-SMAD4 (full-length, WT) (human) (UniProt Q13485); assay: FRET or BRET; TR-FRET screen in cell lysates, orthogonal to the BRET screen; hits at FOC >= 1.5 and P <= 0.05
[2] = biological target: GST-tagged SMAD4 R361H (human) (UniProt Q13485); assay: pull-down; GST-pulldown from lysates of HEK293T cells co-expressing a GST-tagged and a VF-tagged protein, then immunoblotting; in some panels cells treated with TGF-β (10 ng/ml, 4 h), SB431542 (10 μM, 1 h), ionomycin 10 μM + PMA 1 μM (4 h) or CsA (10 μM, 1 h)
[3] = biological target: GST-tagged SMAD4 MH1 domain truncation (1-142 amino acids) (human) (UniProt Q13485); assay: as above
[4] = biological target: GST-tagged SMAD4 MH2 domain truncation (319-552 amino acids) (human) (UniProt Q13485); assay: as above
GST-tagged cJUN (human) = GST-tagged cJUN (human) (UniProt P05412); assay: as above
[5] = biological target: GST-tagged SMAD4 linker region truncation (143-318 amino acids) (human) (UniProt Q13485); assay: as above
[6] = biological target: GST-SMAD4 (full-length, WT) (human) (UniProt Q13485); assay: as above
[7] = biological target: GST-tagged SMAD4 R361C (human) (UniProt Q13485); assay: as above
[8] = biological target: GST-tagged SMAD4 MH1 domain truncation (1-142 amino acids) (human) (UniProt Q13485); assay: FRET or BRET; TR-FRET of single pairs: GST-SMAD4 (WT, domain truncations, truncation mutants) with VF-tagged partners; signal as fold change over empty vector controls
[9] = biological target: Nanoluc (Nluc)-tagged SMAD4 (human) (UniProt Q13485); assay: FRET or BRET; BRETn screen in live cells: Nluc-tagged SMAD4 against Venus-tagged proteins of the OncoPPI v2 library (556 genes); hits at FOC >= 1.5 and P <= 0.05
[10] = biological target: T1, GST-SMAD4 (full-length, WT) (human), Q13485; assay: FRET or BRET; TR-FRET screen in cell lysates, orthogonal to the BRET screen; hits at FOC >= 1.5 and P <= 0.05; details: remark: other sources report otherwise
T1 chain: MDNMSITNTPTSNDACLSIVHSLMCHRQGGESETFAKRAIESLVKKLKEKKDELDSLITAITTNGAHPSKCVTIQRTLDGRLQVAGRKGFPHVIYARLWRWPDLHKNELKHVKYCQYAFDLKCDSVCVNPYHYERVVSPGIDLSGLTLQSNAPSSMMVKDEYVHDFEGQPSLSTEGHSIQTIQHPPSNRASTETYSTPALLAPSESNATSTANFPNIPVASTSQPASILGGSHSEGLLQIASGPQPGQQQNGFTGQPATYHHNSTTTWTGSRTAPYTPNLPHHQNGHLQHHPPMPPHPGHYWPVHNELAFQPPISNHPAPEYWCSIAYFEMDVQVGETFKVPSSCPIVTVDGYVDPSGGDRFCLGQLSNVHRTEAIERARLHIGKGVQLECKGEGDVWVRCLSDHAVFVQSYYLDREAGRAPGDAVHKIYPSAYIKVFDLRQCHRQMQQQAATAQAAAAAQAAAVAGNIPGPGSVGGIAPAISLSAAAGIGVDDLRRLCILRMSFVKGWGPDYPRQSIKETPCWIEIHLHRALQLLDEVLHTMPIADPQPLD

Sequences of proteins named here, by UniProt entry; tags and fusion partners are left off.
UniProt P05412: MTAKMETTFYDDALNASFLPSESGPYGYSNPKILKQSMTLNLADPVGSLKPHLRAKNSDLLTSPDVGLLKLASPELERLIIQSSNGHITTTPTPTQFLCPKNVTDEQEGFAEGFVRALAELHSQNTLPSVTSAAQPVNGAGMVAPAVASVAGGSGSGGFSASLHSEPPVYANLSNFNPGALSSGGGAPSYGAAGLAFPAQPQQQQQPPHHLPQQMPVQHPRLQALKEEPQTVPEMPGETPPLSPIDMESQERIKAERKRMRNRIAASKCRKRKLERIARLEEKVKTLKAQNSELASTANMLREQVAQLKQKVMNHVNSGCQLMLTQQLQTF

[11] = biological target: T2, Nanoluc (Nluc)-tagged SMAD4 (human), Q13485; assay: FRET or BRET; BRETn screen in live cells: Nluc-tagged SMAD4 against Venus-tagged proteins of the OncoPPI v2 library (556 genes); hits at FOC >= 1.5 and P <= 0.05; details: remark: other sources report otherwise
T2 chain: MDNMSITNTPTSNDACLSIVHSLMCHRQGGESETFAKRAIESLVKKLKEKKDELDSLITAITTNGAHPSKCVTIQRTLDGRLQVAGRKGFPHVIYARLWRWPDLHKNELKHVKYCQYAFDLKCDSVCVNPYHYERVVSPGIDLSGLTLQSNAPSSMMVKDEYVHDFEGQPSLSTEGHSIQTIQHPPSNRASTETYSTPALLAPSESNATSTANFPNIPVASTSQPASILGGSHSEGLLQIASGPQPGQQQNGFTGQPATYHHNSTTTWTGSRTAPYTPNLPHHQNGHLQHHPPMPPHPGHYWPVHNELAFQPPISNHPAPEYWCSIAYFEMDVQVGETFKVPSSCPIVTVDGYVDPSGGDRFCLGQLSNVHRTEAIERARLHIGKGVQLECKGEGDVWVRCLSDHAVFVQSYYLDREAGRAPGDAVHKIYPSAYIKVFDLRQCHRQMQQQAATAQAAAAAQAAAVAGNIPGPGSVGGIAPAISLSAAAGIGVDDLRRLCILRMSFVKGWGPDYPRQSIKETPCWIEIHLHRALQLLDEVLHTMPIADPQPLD

[12] = biological target: T1, GST-SMAD4 (full-length, WT) (human), …; assay: pull-down; GST-pulldown from lysates of HEK293T cells co-expressing a GST-tagged and a VF-tagged protein, then immunoblotting; in some panels cells treated with TGF-β (10 ng/ml, 4 h), SB431542 (10 μM, 1 h), ionomycin 10 μM + PMA 1 μM (4 h) or CsA (10 μM, 1 h); details: remark: other sources report otherwise
[13] = biological target: N-Venus-tagged SMAD4 (NV-SMAD4) (human) (UniProt Q13485); assay: split reporter; BiFC with N-Venus and C-Venus fusions in transfected Panc-1 cells; imaging and fluorescence of cell lysates
[14] = biological target: C-Venus-tagged SMAD4 (human) (UniProt Q13485); assay: as above

B1: Venus-Flag-tagged NFATc1 (VF-NFATc1), full-length WT (protein, UniProt O95644-2 1-716)
chain: MPSTSFPVPSKFPLGPAAAVFGRGETLGPAPRAGGTMKSAEEEHYGYASSNVSPALPLPTAHSTLPAPCHNLQTSTPGIIPPADHPSGYGAALDGGPAGYFLSSGHTRPDGAPALESPRIEITSCLGLYHNNNQFFHDVEVEDVLPSSKRSPSTATLSLPSLEAYRDPSCLSPASSLSSRSCNSEASSYESNYSYPYASPQTSPWQSPCVSPKTTDPEEGFPRGLGACTLLGSPRHSPSTSPRASVTEESWLGARSSRPASPCNKRKYSLNGRQPPYSPHHSPTPSPHGSPRVSVTDDSWLGNTTQYTSSAIVAAINALTTDSSLDLGDGVPVKSRKTTLEQPPSVALKVEPVGEDLGSPPPPADFAPEDYSSFQHIRKGGFCDQYLAVPQHPYQWAKPKPLSPTSYMSPTLPALDWQLPSHSGPYELRIEVQPKSHHRAHYETEGSRGAVKASAGGHPIVQLHGYLENEPLMLQLFIGTADDRLLRPHAFYQVHRITGKTVSTTSHEAILSNTKVLEIPLLPENSMRAVIDCAGILKLRNSDIELRKGETDIGRKNTRVRLVFRVHVPQPSGRTLSLQVASNPIECSQRSAQELPLVEKQSTDSYPVVGGKKMVLSGHNFLQDSKVIFVEKAPDGHHVWEMEAKTDRDLCKPNSLVVEIPPFRNQRITSPVHVSFYVCNGKRKRSQYQRFTYLPANGNAIFLTVSREHERVGCFF
binding [1]: binds | binding [2]: binds | binding [3]: binds | binding [4]: no binding | binding (GST-tagged cJUN (human)): binds | binding [5]: no binding | binding [6]: binds | binding [7]: binds | binding [8]: binds | binding [9]: binds

B2: VF-tagged SMAD3, P84022 1-425 (protein)
chain: MSSILPFTPPIVKRLLGWKKGEQNGQEEKWCEKAVKSLVKKLKKTGQLDELEKAITTQNVNTKCITIPRSLDGRLQVSHRKGLPHVIYCRLWRWPDLHSHHELRAMELCEFAFNMKKDEVCVNPYHYQRVETPVLPPVLVPRHTEIPAEFPPLDDYSHSIPENTNFPAGIEPQSNIPETPPPGYLSEDGETSDHQMNHSMDAGSPNLSPNPMSPAHNNLDLQPVTYCEPAFWCSISYYELNQRVGETFHASQPSMTVDGFTDPSNSERFCLGLLSNVNRNAAVELTRRHIGRGVRLYYIGGEVFAECLSDSAIFVQSPNCNQRYGWHPATVCKIPPGCNLKIFNNQEFAALLAQSVNQGFEAVYQLTRMCTIRMSFVKGWGAEYRRQTVTSTPCWIELHLNGPLQWLDKVLTQMGSPSIRCSSVS
binding [10]: binds | binding [11]: binds | binding [12]: binds

B3: C-Venus-tagged NFATc1 (CV-NFATc1) (protein, UniProt O95644-2 1-716)
chain: MPSTSFPVPSKFPLGPAAAVFGRGETLGPAPRAGGTMKSAEEEHYGYASSNVSPALPLPTAHSTLPAPCHNLQTSTPGIIPPADHPSGYGAALDGGPAGYFLSSGHTRPDGAPALESPRIEITSCLGLYHNNNQFFHDVEVEDVLPSSKRSPSTATLSLPSLEAYRDPSCLSPASSLSSRSCNSEASSYESNYSYPYASPQTSPWQSPCVSPKTTDPEEGFPRGLGACTLLGSPRHSPSTSPRASVTEESWLGARSSRPASPCNKRKYSLNGRQPPYSPHHSPTPSPHGSPRVSVTDDSWLGNTTQYTSSAIVAAINALTTDSSLDLGDGVPVKSRKTTLEQPPSVALKVEPVGEDLGSPPPPADFAPEDYSSFQHIRKGGFCDQYLAVPQHPYQWAKPKPLSPTSYMSPTLPALDWQLPSHSGPYELRIEVQPKSHHRAHYETEGSRGAVKASAGGHPIVQLHGYLENEPLMLQLFIGTADDRLLRPHAFYQVHRITGKTVSTTSHEAILSNTKVLEIPLLPENSMRAVIDCAGILKLRNSDIELRKGETDIGRKNTRVRLVFRVHVPQPSGRTLSLQVASNPIECSQRSAQELPLVEKQSTDSYPVVGGKKMVLSGHNFLQDSKVIFVEKAPDGHHVWEMEAKTDRDLCKPNSLVVEIPPFRNQRITSPVHVSFYVCNGKRKRSQYQRFTYLPANGNAIFLTVSREHERVGCFF
binding [13]: binds

B4: N-Venus-tagged NFATc1 (protein, UniProt O95644-2 1-716)
chain: MPSTSFPVPSKFPLGPAAAVFGRGETLGPAPRAGGTMKSAEEEHYGYASSNVSPALPLPTAHSTLPAPCHNLQTSTPGIIPPADHPSGYGAALDGGPAGYFLSSGHTRPDGAPALESPRIEITSCLGLYHNNNQFFHDVEVEDVLPSSKRSPSTATLSLPSLEAYRDPSCLSPASSLSSRSCNSEASSYESNYSYPYASPQTSPWQSPCVSPKTTDPEEGFPRGLGACTLLGSPRHSPSTSPRASVTEESWLGARSSRPASPCNKRKYSLNGRQPPYSPHHSPTPSPHGSPRVSVTDDSWLGNTTQYTSSAIVAAINALTTDSSLDLGDGVPVKSRKTTLEQPPSVALKVEPVGEDLGSPPPPADFAPEDYSSFQHIRKGGFCDQYLAVPQHPYQWAKPKPLSPTSYMSPTLPALDWQLPSHSGPYELRIEVQPKSHHRAHYETEGSRGAVKASAGGHPIVQLHGYLENEPLMLQLFIGTADDRLLRPHAFYQVHRITGKTVSTTSHEAILSNTKVLEIPLLPENSMRAVIDCAGILKLRNSDIELRKGETDIGRKNTRVRLVFRVHVPQPSGRTLSLQVASNPIECSQRSAQELPLVEKQSTDSYPVVGGKKMVLSGHNFLQDSKVIFVEKAPDGHHVWEMEAKTDRDLCKPNSLVVEIPPFRNQRITSPVHVSFYVCNGKRKRSQYQRFTYLPANGNAIFLTVSREHERVGCFF
binding [14]: binds

Source: publication PMC12831459
